In the RNAGym collection of RNA variant scans (doi:10.7554/elife.90254) one finds self-cleavage data, which are given here for 167 variants.

B1: LINE1-mini (parent)
chain: GGCAGAGCUCAACACAGCGUGGCAAAGUGGCUGUGGCUAGACUGCC

Read counts are not given, so values of variants with three or more changes are uncertain.

The variants in this data set derive from B1. In words: self-cleavage, relative activity (ratio to wild type); higher = more cleavage; in vitro, sequencing; the parent is a self-cleaving ribozyme.
With C18A A25G A41G, the self-cleavage was 0.05. For G7A C13A C18U, the self-cleavage turned out to be 0.09. The result for A12G G29C U32C G40C reads 0.03; that for A6U C8G C13U, 0.17; that for U20A U28A G40C, 0.03. The result for A14U A26C C42A reads 0.03. The same measure for U9G G22A G30A U34G C46A: 0.05; for A6G C13G C18U G21A A24U G33A: 0.05. In the case of A16U G17U C18U C37U, the self-cleavage came out at 0.06. The result for A4G C42U C46A reads 0.02; that for A12C G17U U20C G22A G36A, 0.02. The result for G5A G21C G22U G27U A39U reads 0.03; that for A4U A6U U28C, 0.02; that for A6G G22U C23A G35U G40C, 0. The result for G2C C15U C42A C45U reads 0.16; that for A4U C18A U43C, 0.08; that for C13U C18A C23U, 0.03. C8A C10A U38C A39C: the self-cleavage turned out to be 0.02. The same measure for A4C G7U C31U: 0.86; for G29A C31A C46A: 0.27. Regarding A14G G17C G30A C42G, the self-cleavage came to 0.12.

G2C C8G G19A: the self-cleavage was found to be 0.07. The result for G5A A6C A12G U32A G40U reads 0.03. In the case of G1A C10G G21U G35A, the self-cleavage was determined as 0.09.

In the case of C10A A11U C31G A41U, the self-cleavage was determined as 0. Take G2U G5U C15U: the self-cleavage stood at 0.02. The same measure for C3U C13U C42A: 0.08. Take G21U G35A G44C: the self-cleavage stood at 0.08. The same measure for C3A A6C A14U C37G: 1.01. The same measure for G36A G40A C42A: 0.13. The result for A4C G17U G21A G29U reads 0.14; that for A4G U28G G33A C37A, 0.05; that for G2U G7C C10U A26G G27A C42A, 0.02. Turning to A12G C31A U32G G33C C45G, the self-cleavage worked out at 0.03. The result for G1C A6G C18A G27C reads 0. The same measure for G7A A11U A25C G36A A41C: 0.03; for G2A A16U C45U C46A: 0.2; for G2U C3A C23G G36A: 0.68. The result for A25U A39U A41U reads 0.87; that for A4U C15A U20A A41G G44C, 0.01.

On to C10A A26C G35C G36A C42G, for which the self-cleavage was 0. The same measure for C3U U20A A39G: 0.02. With G21A G27C U28G G36U G40C, the self-cleavage came to 0.09. A16C G19U G29C A39C: the self-cleavage worked out at 0.02. The same measure for G17U G27C C46A: 0.22; for G2A A25C C31U: 0.04. The same measure for G1A A16G U28A: 0.04; for G27A G33C G36A U43A: 0.02; for U9A U20C G29U: 0.02. The same measure for G2C G7C U28G G40U: 0.15; for C13G G21U C37G G44A: 0.22. As for G2U A12U G17U A24G, the self-cleavage is 0.02.

With G2A C18G A39C G44C, the self-cleavage was determined as 0.02. The same measure for C10A G29U C31U A41C: 0.01; for G7A C8U A25U C42U: 0.09. The same measure for C15G G19A A25U G33C: 0.36. The same measure for G2A C3A U20G C31A A41U: 0.45. Turning to A4G C10A C42A G44U, the self-cleavage stood at 0.01. The result for G1U G33A A39G reads 0.06; that for C3U A11G C15U, 0.05; that for G1U G5C C15G G44A, 0.02. The same measure for G17U G33U C37A: 0.08; for G5C C18G A26G G36A G44U: 0.04; for G5C A11C A24G G30U G40C C45A C46U: 0.01. The result for C13G C37G U43A reads 0.01. For U28C G30A U38A C45U C46U, the self-cleavage is 0.39. The result for C3G U28A C46U reads 0.1. The result for G1A C10U A39U reads 0.23. Regarding U20A G30A G35A, the self-cleavage amounted to 0.1.

As for C10U A12G C15A G36A C42U, the self-cleavage is 0.02.

As for C13U A24C U34A, the self-cleavage worked out at 0.02.

A6G G19A G27U C42G: the self-cleavage was found to be 0.03. Turning to A16C C18U U20C A26U G29C G36U, the self-cleavage was 0.09. The same measure for G29A U34G G44C: 0.04; for G1A C3A C10U U38A: 0.88.

As for A6C G27C G29C, the self-cleavage was found to be 0.03. The same measure for C15G C31A C45A: 0.03; for G5C C8U A14U U34C C45A: 0.26. The same measure for G2A G7U C8A U9G A24U U34C A39G: 0.65.

Regarding A16U G21U C46U, the self-cleavage was 0.05. Take C13A C15G A25U U32G G33A A39C: the self-cleavage was found to be 0.01. The same measure for C8G C31U U32G C45A: 0.02. The same measure for G1A C8A C10G A12U: 0.02; for A14U G27C G30A C42A: 0.05; for A4G C10A G27U C45G: 0.02. The same measure for C15A A25C G40C G44C: 0.01. On to G33U G36U C37A C45U, for which the self-cleavage came out at 0.02. The same measure for A4U C13G A14G G35A: 0.05. The same measure for C3A G5C G7U C23A: 0.08; for G2A A6G U38A A39U: 0.2; for C3A C10A U34C: 0.05. The same measure for C15G A16G G44A: 0.08; for A4C C8U G30A: 0.28; for C18U C23U U34A: 0.09. As to C13A C31A U38A G40C, the self-cleavage was 0.04. The result for U34C G40U C45G reads 0.02; that for C10A C31G G35A, 0.02. The result for A6U G40U C45U reads 0.16; that for G1C C8A C37A C42U, 0.04; that for C31U G33A U34C, 0.18. On to C10G G19C A41U G44U, for which the self-cleavage was 0.01. The same measure for A6U A12G C42A: 0.07. The same measure for C18U A26C G27C G40C: 0.05; for C3U G33U U34A: 0.25; for A25U A26G C31U A41G: 0.04. The result for G1C A4G C15G G27U G29C U32G G35A reads 0.01; that for C8G C23A G27C G40U, 0.06. As to G1A C8A C31U U34G, the self-cleavage was 0.17. The result for G17C C23U U38C reads 0.05. Consider G5C G27U G35A G44U, for which the self-cleavage amounted to 0.05. The same measure for A6G A11G A14G G19C: 0.01; for C10U U34A C37A: 0.01; for C3U A6G U9C A11U G33C G36U C37U A41G: 0.01. The result for G1C U34C G40C U43A reads 0.04; that for G7U C23U C31G, 0.34.

In the case of G19C U34A U38C C45G C46A, the self-cleavage was found to be 0.02. The same measure for A12U C37G C46U: 0.03; for A4C C10G C23A G27C U28C G30A: 0.01. The result for C23G A24C A26C G27U reads 0.23; that for A4C C8G C37A C46G, 0.13; that for U9C A14C A41U, 0.03. The result for C8A A24U G36C G40U G44C reads 0.13; that for G27A G29U C46U, 0.7. Turning to C13G G30U G36A, the self-cleavage stood at 0.05. The same measure for A14G G29U G33A: 0.06; for C13A G30U U32A: 0.03. Consider A11U G29U G30U, for which the self-cleavage was 0.17. The same measure for C8A A14G G21A C42U: 0.18; for A4U A12U U34G: 0.09. The same measure for G5U A25G G33U C45U: 0.07; for A6G G7C C8A G19C U20G G36U: 0.33; for U9G C13A G40U A41C: 0.09. The result for G1C C10U A14U C15A A24U C31A G35A reads 0.01; that for C13U G19A U20G G27C, 0.02; that for G7A G33C G36C, 0.03. G21U G40A C46U: the self-cleavage was found to be 0. The same measure for G1C G17U G40A: 0; for C8G C31A U32C G40A: 0.02. As to C8G C13U U28A, the self-cleavage is 0.14.

In the case of G2A A4C G21A G29A C42U, the self-cleavage amounted to 0.14.

As to U9A A12G A14C, the self-cleavage stood at 0.02. The result for C10G A24C C42G reads 0.02; that for G2U U9C A26C G29U, 0.01; that for C3U C8A G22U, 0.13. The result for U9A G17U G27A G33U reads 0.08; that for U9C C15G C45G, 0.08. The result for C8G A14G C37A C42A G44C reads 0.03. In the case of C3U C37G C46G, the self-cleavage came out at 0.09. The same measure for G2C C15G C31U U34C: 0.02. The result for A6C G7A A16U G22U U43C reads 0; that for G5C C10A C18A, 0.05. The result for C13A U32C A41U reads 0.16; that for C10A C13U A24G U32A C37U, 0.04. For G1A G21C G33U G44A C46U, the self-cleavage worked out at 0.03.

On to C10A C23A G33U, for which the self-cleavage worked out at 0.01. Take G1A G21C A25C G35U G36C: the self-cleavage was 0.17. The same measure for G5A C15G U34A: 0. The result for C10A G17A G30C reads 0.08; that for A4G U9C C31G, 0.01; that for C3U A16U G19U G27C G30C U38A, 0.03. For the variant C8U A14G G27A, the self-cleavage worked out at 0.32. The same measure for C8A C10A A24C: 0.08; for G35C A41U C45A: 0.02.

For C8U A24G G27A, the self-cleavage came out at 0.19. The same measure for G7C A11C G29U U43A: 0.03; for A25G C31G G36U C42G C46A: 0.02; for G7A G22U G27U C42A: 0.12.
